Test results taken from the supplement of paper PMC12632987.
Whole data set: some 4,500 sequences, median “median log2 fold change of GCK-ALFA target abundance (FLAG IP / Myc IP barcode read proportion)” near 0.078, cut for the lowest 2% near -0.6. The list shows a part of the results.

B1: GBRAP_166_4945 (protein)
chain: SLEEIREEAREFIREKAEEMKNANPEERLDLYAEIAEKLREAKEAGLPREELLELVREALELTKEAGGSVEQLVGVLFMFVDLSEEERDEVIKLAEEVKK
B2: GBRAP_160_3973 (protein)
chain: SEEVEELKKEIKELFDEAKKLIEGESYEERLTIIKVMVGDILLLADENPLISDEVEDKIDEIGDELIETIEKNPDLTDEEIKKLIDEAEEKILKTIDEAF
B3: GBRAP_128_3249 (protein)
chain: ANPEVVAYAESVVERLKAADVETAREIAEDFAEYLLTISVEDAEAAIDVVESRLGELSVEHLEILADVLREHRPKYSPEKANLVAGLEVAALNEAEEKEE
B4: GBRAP_128_3287 (protein)
chain: ADPELLEKVKELLEKIKNSDEEEARELAEELAELFGEVSVEEAIALAEIVEEKLPELTAEQLEILAEVLDEAMPAMTPEKAAIMADVASDALLEAEELEE
B5: GBRAP_80_6796 (protein)
chain: AEARLAAALARIEALDPELAARVRRIVELARAMGVSTEDLADFAEAVARLLELDPAKAAELVAELEELLEEEAARGDKANAEAVVRVYAGQALLEVEELE
B6: GBRAP_139_3695 (protein)
chain: SELEEKIEEARRLAEEMREDPEAALEAIVELINSVSEEEAEKLVEAIAEVLLELPLDEAERLADALIELAEERIEDEDKVDIVEATLNGALARRAYEEEK
B7: GBRAP_52_6041 (protein)
chain: MREEMRELAEEIVELMKEGKEEEARKRIKELVETKSEEELELLGEELAELAKKAEPEDLDYIMEVAIILADELIKAGYDEAFADDLLARVARAAVENLKK
B8: GBRAP_160_3983 (protein)
chain: SERYEKLKKFIDETFAEAKELIKGQSHEERVTIVEGYGGQVLMELMSDENVSDEAEDAVAAVIDALVAYLRANPDLTEAEIVALIDEARAKIKAILDKDF
B9: GBRAP_160_4370 (protein)
chain: KEELEKLAEEIEELKKEFKEEAKDLTPEEVVKLGLGVLAEVAALVWENEAVPEEVEEEIMEIIRKAEKELRENKDAPPEELVKIVEEAFEKIIELIKKAK
B10: GBRAP_11_2676 (protein)
chain: KKEKLKEIAELAKKAAKAVKKLLKEGVDNEKLLKEIEELLKKLKELTEKYADKGHQKLTEIAEELFKEALKDPENKEEYLKNLLAALEVLRANVEEEIDE
B11: GBRAP_128_3459 (protein)
chain: STEEVKAYTAETMEKMKEASLEEFRKLATELAERLLTLSLEEVEAAVEVIEERLPELTAEKLEVLAEVFDEAAPRFSPEKRALVAEVRSEALLLAEELEE
B12: GBRAP_14_3775 (protein)
chain: MEEAIKILEETAKEIVELLAEIAPEKAAEFKAAVEEVLKATIERIKETGDAIAAAEEGRDELRARVAAILADADPETRARALAVVDVEYGKAILELEELE
B13: GBRAP_166_4940 (protein)
chain: SLEEMLEELRELIREKVERFPELNEEERLELAIEIGEALRELREAGASDEDILELLTEFAKLLLEAGLDARRLVAAVILEAELDEELEDRVWDEIDKLEK
B14: GBRAP_14_3765 (protein)
chain: MEEVEKIIDETGKEIAALLAELVPEKAEEFKEAIDEVRKETIARIKETGDALAAAEEGERRLAERIAEITADLPEERRAEALAVVRVLFGQAILEIDEAL
B15: GBRAP_122_2961 (protein)
chain: MEEEKLLKEALKKLEEAKDKPISEIVLLTMEALAKAKREEDKEAIIEKAAEIISEKVPNVSKEEVKKILKEALRLMEEEGISVEEAAAYADVEILDLEME
B16: GBRAP_160_4672 (protein)
chain: MEEVEKLKEEIKEILEEALEFMRGESTEERIAVARSMTGDIILLLEESPVVSDEAIDEADELGDELVAWIAAHPDITDEELEAKLEEVLEKIKKILEEKT
B17: GBRAP_160_4566 (protein)
chain: MERVEEFLEELREAIEETLEATKDDSVEEIKIAVVGTIGSFAMEAAEDENFSDEMVDAILEAGDRAAKTLEELKDASYEEIKKAVMEIVEELEEEVLKIA
B18: GBRAP_125_3080 (protein)
chain: HMEQDLADLATLAKALGLSDDEVEELVRLAAASSLKQTLIALMLAEGWEEVAEALEKLTEEQARKVLREVKAYIEAHPDATPEEVKELMLELAKKAIAEA
B19: GBRAP_11_2916 (protein)
chain: KLEKLKEIAKKAEELVKALKELLKEGVDNEELRKKALELAKELLELVKENLDEEDAELAEELVEALEKSKKEPEKAEEYVKEALAIAEVLLGQALLEIEE
B20: GBRAP_95_7074 (protein)
chain: DDDRLLLDSLVEVLDTYIDLGNKEKAEEAAKEAAETAKELGYPTFPESLSLEGRLLIVEEAAKTYDKETVLKLTEAILKSVKDEKDKKKILEKREELLKK
B21: GBRAP_83_6958 (protein)
chain: MITVVGTSKPESIRAAVDAAIDLHKEEGIEVELELYVTKESAETALEALKRMIDAGVEAEITLIGKESDKETLEKLAEEIKKRAKEAGVNVKVEVIVEPE
B22: GBRAP_39_5648 (protein)
chain: EEEEERELLFSYFEALAEKYRIEKGISDEELIEEGLKLLEELKKKYPEIKEKLEELIELAKEGNEEIKLAATGIALLAEEGVSVEELKKHIEDFIEYVKS
B23: GBRAP_139_3747 (protein)
chain: MSPEEVEREARALVARYAEDPEAAIAALARLLASLDEELRERAVRAIAEALLERPFDEAEAFLDALERRLREEEGDEEGAELVEAEANRTLAEIAVREEA
B24: GBRAP_160_4408 (protein)
chain: SEELEETAERILEAVEDELELLLELGEVDPEAAAGLLEGTILLEAFEDDSLTEEQEEEIEELAEELAERLERLLKEEGRMTEEIVEELLEEAEEGLEEII
B25: GBRAP_160_4397 (protein)
chain: SEKFEKLKKEITDIFEETKEMIKGQSPEERKVIVRVSFGEILLAVFENEEVTDEQEEEFGKLLDKYEKEALKAVEKGLEALLEVLDKAKEELLKLIEKNE
B26: GBRAP_160_4388 (protein)
chain: SMGFEELAKEVDEIIDEAIELIEGESPEERRVIARVALGEILMAAFSNDDLTDEQEEAIAEVLDKGEKEIEKAIEEGLEAVKAALEKTREELLKLIKEHE
B27: GBRAP_35_5512 (protein)
chain: SSDDTEVDMLVATIEDLVLAIPDLDVETASSIANQLIDDARKLAEDLKDDPEGLKRIAEALEALLKAIKKHYGDDPLAKETAKKVEEALKHVKELYEKAL
B28: GBRAP_122_2962 (protein)
chain: MKEEELLKKALEELEAAADKPLHEIVLKTMEALAEAESEEAKEKIIRKASEIISKKVPNVKKEEVEEILREALRLMEEEGISVEEAAAYADVEILDLEME
B29: GBRAP_150_3894 (protein)
chain: DLEELLIIADSNEDILNGMIESGKYNLTILETLLKVTEKEIETAPPEIAELLKKAAEALKKAIKLLKEGAPKEEIEKELKKAAEAYKKAAELLEKKIKEE

Target: GABARAP, O95166
Sequence (O95166 whole entry, the tested form may be a part): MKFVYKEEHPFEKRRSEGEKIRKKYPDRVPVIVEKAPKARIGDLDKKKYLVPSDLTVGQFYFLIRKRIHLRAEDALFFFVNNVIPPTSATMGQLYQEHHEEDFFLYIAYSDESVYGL
Assay: median log2 fold change of GCK-ALFA target abundance (FLAG IP / Myc IP barcode read proportion) (log2 ratio); each designed protein is fused to an ALFA-tag nanobody in HEK293 cells to bring the named protein to FLAG-tagged glucokinase (GCK); Myc marks an untargeted standard; higher = target protein stabilised (more abundant)
Details: target protein: 3xFLAG-MCP-GCK-ALFA reporter; HEK293 landing pad (RPLP)
In short: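 Binders fused to an ALFA nanobody were recombined as a library into HEK293 landing-pad cells, which were induced with 2 μg mL^−1 doxycycline and then transfected to express a FLAG-tagged target and a Myc-tagged standard. After 48 h, circular RNA barcodes recovered by anti-FLAG and anti-Myc immunoprecipitation of lysates were reverse transcribed, amplified and sequenced. Each binder's target abundance is the median log2 ratio of FLAG to Myc barcode read proportions, from barcodes present at ≥10^−7 in both replicates, binders carrying ≥3 barcodes per replicate, a 10^−6 pseudocount and pooled replicates.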

Row | Binder | median log2 fold change
1 | B1 | 0.177
2 | B2 | -0.605
3 | B3 | 0.0533
4 | B4 | -0.0876
5 | B5 | 0.0415
6 | B6 | 0.0499
7 | B7 | -0.345
8 | B8 | -0.0759
9 | B9 | 0.287
10 | B10 | 0.141
11 | B11 | 0.127
12 | B12 | 0.291
13 | B13 | 0.187
14 | B14 | 0.0613
15 | B15 | 0.216
16 | B16 | -0.275
17 | B17 | -0.0372
18 | B18 | 0.0607
19 | B19 | 0.0903
20 | B20 | 0.0208
21 | B21 | 0.149
22 | B22 | 0.212
23 | B23 | 0.0584
24 | B24 | -0.872
25 | B25 | -0.482
26 | B26 | -0.185
27 | B27 | 0.195
28 | B28 | 0.323
29 | B29 | 0.103
